Experimental data as given in the supplement of paper PMC3334620.
The full ranking holds about 33,000 sequences; the median of “E-score (-0.5 to 0.5)” is about -0.056, and the highest 2% start at about 0.38. This is one part of the list.

Molecular target: Stb4 (UniProt P50104)
Experiment: PBM E-score (8-mer binding enrichment) (E-score (-0.5 to 0.5)); higher = stronger / more preferred TF binding; most listed sequences are background and not binding sites
Conditions: protein concentration: 200 nM; construct: GST-DNA-binding domain
Outline: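 E-scores (a modified Wilcoxon-Mann-Whitney statistic) were assigned by the Universal PBM Analysis Suite to every ungapped eight-base word pooled with its reverse complement. The input came from universal all-10-mer Agilent arrays made double-stranded by primer extension and probed with GST-tagged yeast transcription factors at about 100-200 nM. Fluorescent anti-GST detected bound protein, and masliner normalised the scans.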

Sequence | PBM E-score
CTACCGCC | 0.0766
AAAAGTCC | 0.0392
AGTCCACT | -0.244
AAGAAGGT | -0.0996
AAGAACGG | 0.157
AGAAGGCC | -0.0107
AAGTCATC | -0.104
AGACCAAG | 0.0151
ACCGGTAC | 0.154
GAATGCAA | -0.0347
TGGAGGAA | -0.133
CGATAAGC | 0.104
AGATAGGG | -0.195
AGGCATCC | -0.0871
ATTTCCCA | -0.0128
ATAACACG | -0.0189
GGAAGTTA | 0.332
AATCAAAC | 0.00112
CCCCCCGG | 0.121
GGTTCATA | -0.0132
CTGTGAAG | -0.156
CCCTGTGA | -0.301
CCTGTTAC | 0.00149
CGAACAGC | -0.0775
CGATCTAC | 0.0757

Sequence | PBM E-score
GTTGCTAA | 0.137
ATTGCAAG | -0.19
AAGGCTAT | -0.0614
CATGTGGC | -0.158
CCCGAAAG | 0.393
AGGCAGAA | -0.0655
AGATCACA | -0.0575
CTAGCCGC | 0.21
CCACTTAC | 0.0392
AGAGATCC | 0.174
ACTACAAT | -0.0319
GGCGCGCC | -0.048
AGAGCAAG | -0.114
ACACGAGT | -0.0741
GGCCACCA | -0.0609
CGTCCATA | -0.125
GCGGTATA | 0.0922
CGGAATTA | 0.401
CCAACAGG | -0.253
CTATATAC | -0.0645
CCCGTTCA | 0.0292
ACCTGATA | -0.133
TTGACAAA | -0.0958
AAAGGGGG | -0.106
GGTACTAA | 0.117

Sequence | PBM E-score
ACAATCGT | -0.281
GTGGCTAA | -0.00858
CCAAGCGG | -0.0587
ACGATCCC | 0.192
TAATGTAA | -0.0479
AGCAGCCA | -0.172
AGAAACCC | 0.075
CCCTGAAG | -0.26
GACTTGAA | 0.0368
AGAAAGCC | -0.113
ACCCGCGG | 0.361
CTCTCCTC | -0.208
CGTTCTAC | -0.181
AGCCTCGA | -0.195
GCTTACAA | -0.24
AAAGGGAT | -0.175
AGTCACCG | 0.114
CAAGAAAA | 0.0813
TACCCGCA | 0.357
CAATGGAG | -0.212
CGGTGGAC | -0.00414
GATGTGAC | 0.101
CACTCGAG | -0.175
GATCGATC | -0.0813
CCTCCTCC | -0.0669

Sequence | PBM E-score
GACATGGA | -0.199
CCTGGAGA | -0.28
CCCTGGGA | -0.0681
CAACTACA | -0.0599
ATGTACCA | 0.0249
GCCAGCCA | -0.197
AACATGCC | 0.0469
ATTACCAA | -0.0656
CCGCTACA | 0.109
GCAAGTCC | -0.0553
CTCGGGCA | 0.325
AGACCATA | 0.121
CTTAGTGA | -0.137
ATGACTCC | 0.0931
CGAGCCGA | 0.399
GGTACCCA | -0.129
AAGGGCCG | 0.169
AACGTTCA | -0.267
ATCAAAAT | -0.203
GGTAGGAA | 0.0304
CATGCGTA | 0.00555
AGGGCATC | -0.217
AATACTAA | 0.113
CCAAGAAA | -0.0741
TGCACGCA | -0.163

Sequence | PBM E-score
ACGGACTA | -0.0472
GGTGAATA | 0.0433
AAACAGAC | -0.139
CCGTCGCC | 0.08
ATCTGATC | 0.00741
CGCTTAAG | -0.148
TAACCGAA | 0.431
AAATCCGA | 0.396
CGTGGTAG | -0.121
GTGACCTA | -0.113
CGCTGATC | 0.3
CCCCATAC | -0.00014
CCTTGTAC | -0.076
AGTTTTGG | -0.144
AGCTCAGG | -0.293
CATCCAGG | -0.178
GGAACCAC | 0.243
AAGCCGGC | 0.273
AGCGTATA | 0.00919
ATATACTC | -0.0565
CACTATAA | -0.38
AGCAATTG | -0.228
ACGCAGCT | -0.208
GCGGTCTA | -0.238
CCAAGGTC | -0.179

Sequence | PBM E-score
CTCAACTC | 0.0905
AGAAACTC | 0.0723
CCGGTCAC | 0.108
CCAACGGA | 0.201
GCTACTCA | -0.211
ATACAGGA | 0.0661
AACGATCT | 0.00017
ACCATCGG | 0.237
AGCGCACT | -0.213
ACCGCGTA | 0.0889
AGGACAGC | -0.211
GACACCCC | -0.041
CACTAACC | 0.0836
ACAAGTGA | 0.0183
CGAAGTGA | 0.0225
ATGAGCAA | -0.0718
AAGACGAT | -0.308
GCGTACTA | -0.197
AGCGCGCC | 0.04
AGGGACCA | -0.256
ACTGTTAG | -0.274
AGTCTACC | -0.0892
GCTCCGCC | 0.0632
ACGTTCGG | 0.358
GCACGAGC | -0.111

Sequence | PBM E-score
GCATAGAC | -0.162
AGAAACAT | -0.0859
ATCCGAGG | 0.481
AGGTTGCA | -0.102
CCAGGAGG | -0.205
CAGGCCAG | -0.105
CAGACAAG | -0.107
GATGGTTA | -0.018
AAATCGAA | -0.0555
ATTAGAAG | -0.154
CAACAGAA | -0.176
AAAGGTAC | 0.0111
AATCGATG | -0.059
ATACTGAG | -0.0728
CATGTCAC | -0.0935
TCCCCCGA | 0.303
CCAAAATA | 0.0978
ATGCGAAG | -0.157
ATTCAGCA | -0.2
CTTTTCAA | -0.111
GGAGCCCC | -0.0597
CAAAGAGC | -0.0947
